According to patent US20220331267A1, “METHODS AND COMPOSITIONS FOR TREATMENT OF DEMYELINATING DISORDERS” (Rush University Medical Center, priority 2019, published 2022):

Target: T1, PPARβ (Mus musculus, UniProt P35396)
T1 sequence (P35396 1-440): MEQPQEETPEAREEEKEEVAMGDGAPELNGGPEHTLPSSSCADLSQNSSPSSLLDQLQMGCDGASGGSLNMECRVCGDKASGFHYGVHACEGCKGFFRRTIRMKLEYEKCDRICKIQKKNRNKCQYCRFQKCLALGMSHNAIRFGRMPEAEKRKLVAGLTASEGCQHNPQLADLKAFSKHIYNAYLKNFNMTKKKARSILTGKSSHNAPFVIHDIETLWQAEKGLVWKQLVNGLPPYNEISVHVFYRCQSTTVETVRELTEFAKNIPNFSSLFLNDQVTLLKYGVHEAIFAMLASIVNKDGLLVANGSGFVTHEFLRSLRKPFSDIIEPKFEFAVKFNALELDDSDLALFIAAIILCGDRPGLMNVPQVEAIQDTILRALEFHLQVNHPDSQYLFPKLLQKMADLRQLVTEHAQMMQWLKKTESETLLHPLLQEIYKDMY
Conditions: melting temperature shift of PPARβ protein, Table 3 screen

| Structure (SMILES) | ΔTm [°C] |
| --- | --- |
| CC(C)(C)c1cc(C(C)(C)C)c(O)c(C(C)(C)C)c1 [2,4,6 TB Phenol, 2,4,6-Tri-ter-butyl Phenol] | 0.44 |
| Cc1cc(O)ccc1C(C)C [4-I, 5-M Phenol] | 0.15 |
